Reference: PubChem BioAssay AID1346428 (National Center for Advancing Translational Sciences (NCATS), 2018)
Where “and” joins values, the source holds several entries; their conditions need not be identical. Equal values may be shown once. The campaign covered roughly 48,000 compounds. About 1,200 (2.5%) were called active. Not shown: some 2% with an inconclusive outcome.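 Rule for the calls: active = activation of at least 60% and not above a set upper limit (about 1 call in 100 departs from these limits); inconclusive = activation of 40% to 60%, or above that upper limit; inactive = activation under 40%.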 This is one part of the list.

molecular target: Probable G-protein coupled receptor 32 (Homo sapiens) (UniProt O75388); assay: qHTS for Agonists of Human Resolvin D1 Receptor DRV1; details: CHO-K1 GPR32 beta-arrestin PathHunter luminescence, 90 min; at 76.9 µM; active compounds read high; zero percent set by DMSO-only wells; note: 0% is about no effect
Chain of UniProt O75388 (O75388 whole entry, looked up, the tested form may be a part): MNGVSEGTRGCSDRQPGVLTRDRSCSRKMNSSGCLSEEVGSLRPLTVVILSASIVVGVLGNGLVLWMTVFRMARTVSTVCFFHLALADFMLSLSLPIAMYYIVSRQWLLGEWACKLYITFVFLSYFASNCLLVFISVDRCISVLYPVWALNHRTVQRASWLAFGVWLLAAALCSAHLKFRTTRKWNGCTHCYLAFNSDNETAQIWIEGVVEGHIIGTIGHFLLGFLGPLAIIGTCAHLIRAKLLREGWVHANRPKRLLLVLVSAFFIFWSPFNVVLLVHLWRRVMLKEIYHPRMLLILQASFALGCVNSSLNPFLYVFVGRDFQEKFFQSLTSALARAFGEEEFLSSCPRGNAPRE
Outline: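 Agonism was scored by beta-Gal fragment complementation (chemiluminescent read, 1 h detection at ambient temperature) reporting beta-arrestin binding to GPR32 in engineered CHO-K1 cells. Compound treatment lasted 90 min at 37 C, normalized to a DMSO basal control.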

activation, inactive:
COCc1cc(C)nc2sc3c(=O)n(-c4cc(C)ccc4C)nnc3c12 -10.7%
CCOC(=O)c1ccccc1NC(=O)N1CCN2CCCCC2C1 (stereo not drawn) -10.4%
O=C1c2ccccc2C(=O)c2c1ccc(O)c2O -81.3%
COc1cccc2cc(-c3nc4sc(C(=O)Nc5ccc(F)cc5F)c(C)c4c(=O)[nH]3)c(=O)oc12 -5.8%
COc1ccccc1CCNC(=O)Cc1c(C)c2ccc(O)cc2oc1=O 16.7%
CC(=O)Nc1nonc1-c1nnc(SCC(=O)Nc2cc(C)ccc2C)n1-c1ccccc1 -15.1%
O=C1CC(c2nnc(Cc3c(F)cccc3Cl)o2)CN1c1ccccc1 (stereo not drawn) -7.15%
Cc1ccc(Nc2c(-c3ccc(N4CCOCC4)cc3)nc3cccc(C)n23)cc1 -6.06%
CCOC(=O)C(O)c1ccccc1 (stereo not drawn) 7.38%
Cc1cccc(CN2C(=O)c3ccccc3S(=O)(=O)c3ccc(C(=O)N(C)Cc4ccccc4)cc32)c1 -7.17%
COc1cccc(NC(=O)CCc2nnc3n(Cc4ccccc4Cl)c(=O)c4ccccc4n23)c1 -7.7%
Cc1ccc(NC(=O)c2c(C)nc3sc(C(=O)Nc4ccc(F)cc4)c(N)c3c2-c2ccc(Cl)cc2)c(C)c1 -3.86%
CCOc1ccccc1C(=O)Nc1ccc(-n2nncc2-c2ccccc2)cc1 -13%
CCOC(=O)c1ccc(NC(=O)c2sc3ccccc3c2Cl)cc1 -22.9%
COc1ccccc1C(=O)Nc1nnc(S(=O)(=O)N2CCN(c3ccc(F)cc3)CC2)s1 2.73%
Cc1ccc(-c2nnc3ccccc3c2C(=O)Nc2ccc(C)c(F)c2)cc1 -12.1%
CCOC(=O)c1ccc(NC2(c3ccccc3)C(=O)c3ccccc3C2=O)cc1 -13%
COc1cc(OC)c(NS(=O)(=O)c2cc3c(cc2C)N(C(C)=O)CCO3)cc1Cl -20.5%
CCc1nnc(SCc2nc(-c3cccc(Cl)c3)oc2C)c2cc3sc(C)cc3n12 -12.5%
COc1ccccc1NC(=O)CN(c1cc(C)cc(C)c1)S(=O)(=O)c1c(C)[nH]c(=O)[nH]c1=O 24.2%
CCC(C(=O)Nc1ccc(C(C)C)cc1)n1nc(C)n2c(cc3cc(C)ccc32)c1=O (stereo not drawn) -4.73%
NC(=O)c1c(NC(=O)c2cc(-c3ccc(F)cc3)on2)sc2c1CCCC2 -2.85%
Cc1cccc(NC(=O)Cn2nnc(C(=O)NCc3cccs3)c2N)c1 15.8%
Cc1ccccc1C(=O)NCc1nc(-c2ccc(Cl)cc2)no1 -2.46%
Cc1ccc(C)c(Cn2c(=O)cc(C(F)(F)F)c3c(C)nn(C)c32)c1 -9.12%
COc1ccc(Cl)cc1NC(=O)CCn1c(=O)c2cccn2c2ccccc21 -12.8%
CN(C)c1ccc(CNC(=O)C2CCCN(S(=O)(=O)c3ccc4c(c3)CCCC(=O)N4)C2)cc1 (stereo not drawn) 4.68%
CCN(C(=O)CCc1nc(-c2ccc(C)cc2)no1)c1cccc(Cl)c1 -30.1%
Cc1ccccc1OCC(=O)Nc1ccc(C(=O)OCc2cc(=O)n3ccsc3n2)cc1 1.22%
Cc1ccccc1NC(=O)c1nc(S(C)(=O)=O)ncc1N(Cc1ccco1)Cc1sccc1C -23%
Cc1ccc(-c2nc(NC(=O)CSc3ccc4ccccc4n3)ns2)cc1 -12.9%
COC(=O)c1cc2sccc2n1CC(=O)Nc1ccc(C)cc1C -10%
COc1cc2c(cc1OC)C(COc1ccc3c(C)cc(=O)oc3c1)N(C(=O)Cc1ccccc1)CC2 (stereo not drawn) -4.9%
[O-][n+]1cccc(/C(Cl)=N/OC[C@@H](O)CN2CCCCC2)c1 7.98%
Cc1ccc(S(=O)(=O)c2cn(Cc3ccccc3)c3cc(N4CCCC4)c(F)cc3c2=O)cc1 -11.1%
CCOc1ccccc1C(=O)NC1(C(F)(F)F)C(=O)Nc2c1c(=O)[nH]c(=O)n2-c1ccccc1 (stereo not drawn) 13.2%
Cc1cc(C)c(Cn2c3ccccc3c3cnn(CC(=O)NCCC4=CCCCC4)c(=O)c32)c(C)c1 -10.6%
COc1cccc(CNC(=O)c2ccc3nc(-c4ccccc4)c(-c4ccccc4)nc3c2)c1OC -13%
CCC(C)Sc1oc(-c2ccco2)nc1S(=O)(=O)c1ccc(Cl)cc1 (stereo not drawn) -42.8%
COc1ccc(Nc2nnc(-c3ccc(C)c(S(=O)(=O)NCc4nc5ccccc5[nH]4)c3)c3ccccc23)cc1 -25.4%
Clc1ccc(-c2csc(-c3nc(-c4ccc(Br)s4)cs3)n2)cc1 3.85%
O=C(NCc1ccc(Cl)cc1)c1ccc2c(c1)NC(=O)C(CS(=O)(=O)Cc1ccc(F)cc1Cl)N2 (stereo not drawn) -10.9%
Cc1ccc(NC(=O)Cn2nnc(C(=O)NCCc3ccccc3)c2N)cc1 -23.3%
COc1ccc(C)cc1NC(=O)c1cc2ccccn2n1 4.88%
O=C(CCN1CCN(CCO)CC1)Nc1ccc(Br)cc1 -4.25%
CCc1ccc(NC(=O)C2CCCN(S(=O)(=O)c3cccc4nsnc34)C2)cc1 (stereo not drawn) -12.8%
CCOc1ccccc1CNC(=O)CCC(=O)N1CCSc2ccccc21 -15.5%
COc1ccccc1Cc1nc2ccccc2nc1SCC(=O)Nc1ccc2c(c1)OCO2 -15.5%
COc1ccccc1CNC(=O)CCCCn1c(=O)c2ccccc2n(CC(=O)Nc2c(C)cc(C)cc2C)c1=O -7.85%
CN1C(CSCC(F)(F)F)Nc2cc(Cl)c(S(N)(=O)=O)cc2S1(=O)=O (stereo not drawn) 23.6%
O=[N+]([O-])c1cc(-c2nc(-c3ccccc3)no2)ccc1NCc1cccnc1 18.7%
CCCN(CCC)C(=O)CSc1c2c(nc3ccc(Cl)cc13)CCCC2 36.8%
CC(=O)[C@]1(O)Cc2c(O)c3c(c(O)c2[C@@H](O[C@H]2C[C@H](N)[C@H](O)[C@H](C)O2)C1)C(=O)c1ccccc1C3=O -63.5% and -55.3%
